Paper PMC4336329 (PLoS ONE, 2015)
The campaign covered roughly 310,000 compounds. About 2,200 (0.71%) showed an effect of 50% or more. Effects have a minus sign here. This is one part of the list.

These compounds were tested against human ether-à-go-go-related gene (hERG) potassium channel (human, UniProt Q12809) (assay: primary screen, population patch clamp on CHO cells stably expressing hERG).
Sequence of human ether-à-go-go-related gene (hERG) potassium channel (Q12809 whole entry, looked up): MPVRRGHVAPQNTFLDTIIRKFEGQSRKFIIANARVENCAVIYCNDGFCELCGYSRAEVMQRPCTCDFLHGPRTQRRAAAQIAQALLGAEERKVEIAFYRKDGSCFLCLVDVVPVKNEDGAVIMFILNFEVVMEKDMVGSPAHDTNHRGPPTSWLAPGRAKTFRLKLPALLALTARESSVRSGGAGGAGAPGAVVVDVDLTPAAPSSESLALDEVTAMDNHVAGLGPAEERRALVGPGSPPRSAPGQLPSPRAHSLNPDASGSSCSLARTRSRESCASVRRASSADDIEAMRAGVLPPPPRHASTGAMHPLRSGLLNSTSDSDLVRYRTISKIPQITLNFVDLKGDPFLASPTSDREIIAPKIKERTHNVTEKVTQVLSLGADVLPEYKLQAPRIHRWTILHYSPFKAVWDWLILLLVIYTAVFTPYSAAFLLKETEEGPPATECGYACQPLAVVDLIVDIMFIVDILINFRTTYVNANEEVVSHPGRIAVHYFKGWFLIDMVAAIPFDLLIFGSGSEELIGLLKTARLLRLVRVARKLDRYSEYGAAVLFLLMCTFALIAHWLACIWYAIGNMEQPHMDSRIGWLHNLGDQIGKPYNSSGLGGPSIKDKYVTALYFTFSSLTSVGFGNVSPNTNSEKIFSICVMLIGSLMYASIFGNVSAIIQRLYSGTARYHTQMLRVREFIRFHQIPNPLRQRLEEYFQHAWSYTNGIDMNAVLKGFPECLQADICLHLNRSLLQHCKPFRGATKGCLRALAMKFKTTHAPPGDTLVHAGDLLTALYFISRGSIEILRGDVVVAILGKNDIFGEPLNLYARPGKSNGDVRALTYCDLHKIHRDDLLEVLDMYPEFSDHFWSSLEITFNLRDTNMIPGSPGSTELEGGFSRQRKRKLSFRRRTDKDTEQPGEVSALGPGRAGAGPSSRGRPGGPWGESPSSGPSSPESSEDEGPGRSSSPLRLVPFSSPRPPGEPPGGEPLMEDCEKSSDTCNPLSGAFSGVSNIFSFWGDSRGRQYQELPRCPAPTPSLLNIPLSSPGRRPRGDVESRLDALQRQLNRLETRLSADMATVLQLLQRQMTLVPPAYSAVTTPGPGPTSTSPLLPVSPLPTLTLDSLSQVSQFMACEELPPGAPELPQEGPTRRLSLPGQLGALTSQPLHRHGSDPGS

Row | SMILES | hERG current change (%, negative = inhibition) at 1uM
1 | CC(=O)C1=C(O)C(=O)N(CCc2ccccc2)C1c1ccccc1[N+](=O)[O-] (stereo not drawn) | 12.9%
2 | Cc1ccc(C)c(N2CCN(C3CCCCC3NS(=O)(=O)c3ccccc3)CC2)c1 (stereo not drawn) | 20.1%
3 | O=C(Nc1ccc(Cl)cn1)c1cnn2cccnc12 | 7.42%
4 | C=CCc1cccc(/C=N/NC(=O)CNc2ccccc2)c1O | -9.99%
5 | CCCOC(=O)CSc1nnc(-c2ccccc2Cl)o1 | 9.72%
6 | NC(=O)c1c(NC(=O)c2ccccc2Cl)sc2c1CCC2 | 12.2%
7 | CC(C)(C)c1cnnn1-c1ccc(C=O)cc1 | 9.48%
8 | O=c1c2ccccc2c(C=Nc2ccc(O)cc2)c(O)n1Cc1ccccc1 | 9.19%
9 | O=C(CN1CCOCC1)Nc1ccc(-c2nc3ccccc3[nH]2)cc1 | 8.79%
10 | CCOc1ccccc1OCCCC(=O)Nc1sccc1C(N)=O | 18.4%
11 | O=S(Cc1ccc(Br)cc1)Cc1nnc(SCc2c(F)cccc2Cl)n1-c1ccccc1 (stereo not drawn) | 0.505%
12 | C1=CC2C3C=CC(C3)C2C1 (stereo not drawn) | 11.2%
13 | CCC(=O)NC(Nc1sc2c(c1C(=O)OC)CCN(C)C2)(C(F)(F)F)C(F)(F)F | -4.22%
14 | O=C(NCC1CC1)c1ccc2c3n(nc2c1)-c1ccc(Cl)cc1CO3 | 9.46%
15 | NC(=O)c1oc2ccccc2c1NC(=O)C1CCCCC1 | 2.69%
16 | Cc1ccc(OCCCCN2CCc3ccccc3C2)cc1.Cl | -0.885%
17 | Cc1ccc2c(CC(=O)NCC(=O)Nc3c(C)cccc3C)coc2c1 | 7.18%
18 | C=CCn1c(SCC(=O)Nc2cc(Cl)ccc2C(=O)O)nc2sc(C)c(C)c2c1=O | 5.99%
19 | Cc1[nH]cnc1CSCc1ccc(Cl)cc1.Cl | -4.76%
20 | CCOc1ccc(Br)cc1CNCc1cccnc1 | 10.5%
21 | COc1ccc(/C=C2/CCc3ccccc3C2=O)cc1OC | -2.68%
22 | COc1ccc2cc(C(=O)N3CCCCCC3)sc(=O)c2c1OC | 1.33%
23 | Cc1ccc(-c2nc(N)nc(N)n2)c(C)c1 | 16.1%

Row | SMILES | hERG current change (%, negative = inhibition) at 1uM
24 | CCOc1cc(/C=C2\C(=O)NC(=O)N(CCc3ccc(F)cc3)C2=O)ccc1O | -1.56%
25 | O=C(Cc1ccc(Cl)cc1Cl)NCc1cccnc1 | 10.8%
26 | CC(C)CCNC(=O)c1onc(CSc2ccc(Cl)cc2)c1C(=O)NCCC(C)C | 20.7%
27 | CC1CCCN(C2=NC(=O)/C(=C/c3cn(-c4ccccc4)nc3-c3cccc(S(=O)(=O)N(C)C)c3)S2)C1 (stereo not drawn) | -3.81%
28 | Cc1nn2cnc3sc4c(c3c2nc1=O)CCCC4 | 6.71%
29 | COC(=O)Cc1c[nH]c2ccc(OCC(O)CNC(C)C)cc12.O=C(O)c1ccccc1 (stereo not drawn) | 8.25%
30 | C#CCCCCCCCCC(=O)NCCCC | 6.09%
31 | Cc1nc2oc(C(=O)c3ccccc3)c(N)c2c2c1COC(C)(C)C2 | 5.85%
32 | Cc1sc2ncnc(N3CCC(C(=O)Nc4nc(-c5ccc(F)cc5)cs4)CC3)c2c1C | 10.9%
33 | CCCCN(C(=O)NC(=O)Nc1ccc(C)cn1)S(C)(=O)=O | 16.5%
34 | Cn1nc(C(F)(F)F)c(/C=N/OC(=O)c2ccccc2)c1Sc1ccc(Cl)cc1 | 12%
35 | CN(C)C(=O)CSc1n[nH]c(=O)[nH]c1=O | 4.75%
36 | CCCc1cc(NCCCN(C)C)n2c(nc3ccccc32)c1C#N | 12.7%
37 | O=C(CN(CCN1CCOCC1)C(=O)Cn1nnc(-c2ccc(F)cc2)n1)NC1CCCCC1 | 1.7%
38 | CC(/C=N/NC(=O)CSc1nc2ccccc2n1C)=C\c1ccco1 | 0.302%
39 | Cc1ccccc1CN1[C@@H](C(C)C)COCCS1(=O)=O | 13.6%
40 | Cc1ccc(SCCC(=O)OCC(=O)NCC2CCCCC2)cc1 | 7.43%
41 | Cc1ccc(C)c(S(=O)(=O)Nc2ccc(O)cc2)c1 | 7.49%
42 | COc1ccccc1CCC(=O)OCC(=O)c1c(N)n(CC(C)C)c(=O)n(C)c1=O | -8.42%
43 | CCOC(=O)c1cc(NC(=O)c2cccnc2)ccn1 | 8.72%
44 | CCn1c2ccccc2c2cc(NC(=O)CNCC3CCCO3)ccc21.O=C(O)C(=O)O (stereo not drawn) | 9.64%
45 | CC1(C)CC(c2csc(N)n2)CCO1 (stereo not drawn) | 9.83%
